Among the test systems are 501Mel; A101D; A2058; A375.
What all share (assay): cell count relative to DMSO control; melanoma cells; higher = more viable cells
What all share (settings): library dose: standard library concentration; 72 h

This is one part of the list. Most values come without repeats; read them as rough.
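Further: cells treated in 1,536-well plates, then fixed and DAPI-stained, with nuclei counted from automated high-throughput microscope images.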

Regarding `Cc1ccc(Nc2nccc(N(C)c3ccc4c(C)n(C)nc4c3)n2)cc1S(N)(=O)=O` [Pazopanib] + Cc1cc([N+](=O)[O-])ccc1NS(=O)(=O)c1cc(Cl)ccc1Cl [FH535] (first compound 2 µM, partner dose 5 µM), the cell count in the assay with 501Mel was found to be 68.3%; in the assay with A101D it was 52.7%; with A2058, 62.2%; with A375, 87.1%.
In the case of `CC1(C)CCC(c2ccc(Cl)cc2)=C(CN2CCN(c3ccc(C(=O)NS(=O)(=O)c4ccc(N[C@H](CCN5CCOCC5)CSc5ccccc5)c(S(=O)(=O)C(F)(F)F)c4)cc3)CC2)C1` + Cn1cc(/C=C2\C(=O)Nc3cccnc32)c2ccccc21 [GW441756] (first compound 2 µM, partner dose 2 µM), the cell count was found to be 71% in the assay on 501Mel, 48.1% in the assay with A101D, 107% in the assay with A2058 and 120% in the assay with A375.
Regarding `CC1(C)CCC(c2ccc(Cl)cc2)=C(CN2CCN(c3ccc(C(=O)NS(=O)(=O)c4ccc(N[C@H](CCN5CCOCC5)CSc5ccccc5)c(S(=O)(=O)C(F)(F)F)c4)cc3)CC2)C1` + CCc1ccc(CCOc2ccc(CC3SC(=O)NC3=O)cc2)nc1 [pioglitazone] (first compound 2 µM, partner dose 10 µM), the cell count is 83.5% in the assay with 501Mel, 46% in the assay with A101D, 91.3% with A2058 and 68.5% in the assay on A375.
For `Cc1ccc(Nc2nccc(N(C)c3ccc4c(C)n(C)nc4c3)n2)cc1S(N)(=O)=O` [Pazopanib] + O=S(=O)(c1ccccc1)N(CC(F)(F)F)c1ccc(C(O)(C(F)(F)F)C(F)(F)F)cc1 [T0901317] (first compound 2 µM, partner dose 7 µM), the cell count turned out to be 55.1% with 501Mel, 82.7% in the assay with A101D, 95.5% in the assay on A2058 and 110% with A375.
As for `Cc1ccc(Nc2nccc(N(C)c3ccc4c(C)n(C)nc4c3)n2)cc1S(N)(=O)=O` [Pazopanib] + O=C1NC(=O)/C(=C/c2ccc(-c3ccc(F)cc3O)o2)S1 [AS252424] (first compound 2 µM, partner dose 5 µM), the cell count in the assay on 501Mel turned out to be 100%; in the assay on A101D, 85.8%; with A2058, 83.3%; with A375, 106%.
For `Cc1ccc(Nc2nccc(N(C)c3ccc4c(C)n(C)nc4c3)n2)cc1S(N)(=O)=O` [Pazopanib] + CCCCCCCCCCCC1=C(O)C(=O)C=C(O)C1=O [Embelin] (first compound 2 µM, partner dose 6 µM), the cell count turned out to be 69.9% with 501Mel, 90.9% with A101D, 86.4% in the assay on A2058 and 121% with A375.
Consider `Cc1ccc(Nc2nccc(N(C)c3ccc4c(C)n(C)nc4c3)n2)cc1S(N)(=O)=O` [Pazopanib] + N#Cc1c(O)c2c(-c3ccc(-c4ccccc4O)cc3)csc2[nH]c1=O [A769662] (first compound 2 µM, partner dose 10 µM), for which the cell count with 501Mel was found to be 109%; with A101D it was 94.5%; in the assay with A2058 it was 116%; in the assay on A375, 93.7%.
Consider `CC1(C)CCC(c2ccc(Cl)cc2)=C(CN2CCN(c3ccc(C(=O)NS(=O)(=O)c4ccc(N[C@H](CCN5CCOCC5)CSc5ccccc5)c(S(=O)(=O)C(F)(F)F)c4)cc3)CC2)C1` + Oc1nc(-c2ccc(C(F)(F)F)cc2)nc2c1CSCC2 [XAV939] (first compound 2 µM, partner dose 10 µM), for which the cell count amounted to 71.1% in the assay with 501Mel, 56.5% with A101D, 65% in the assay with A2058 and 48.2% in the assay on A375.
On to `Cc1ccc(Nc2nccc(N(C)c3ccc4c(C)n(C)nc4c3)n2)cc1S(N)(=O)=O` [Pazopanib] + COc1ccc(-c2ccc3c(N4CCOCC4)nc(N4C[C@@H](C)O[C@@H](C)C4)nc3n2)cc1CO [KU0063794] (first compound 2 µM, partner dose 0.1 µM), for which the cell count is 83.3% in the assay with 501Mel, 77.9% in the assay on A101D, 76.7% in the assay on A2058 and 92.5% in the assay on A375.
On to `O=C(/C=C/c1cccnc1)NCCCCC1CCN(C(=O)c2ccccc2)CC1` + c1cc(-c2cnn3cc(-c4ccc(OCCN5CCCCC5)cc4)cnc23)ccn1 [Dorsomorphin] (first compound 0.05 µM, partner dose 2 µM), for which the cell count in the assay with 501Mel was determined as 59.8%; in the assay on A101D, 72.4%; with A2058, 89.6%; with A375, 103%.
For `CC1(C)CCC(c2ccc(Cl)cc2)=C(CN2CCN(c3ccc(C(=O)NS(=O)(=O)c4ccc(N[C@H](CCN5CCOCC5)CSc5ccccc5)c(S(=O)(=O)C(F)(F)F)c4)cc3)CC2)C1` + COc1cc2ncnc(Nc3ccc(Oc4ccccc4)cc3)c2cc1OC [SrcI1] (first compound 2 µM, partner dose 10 µM) the same measures were 74%, 41.4%, 92.4% and 68.2%.
Regarding `CC1(C)CCC(c2ccc(Cl)cc2)=C(CN2CCN(c3ccc(C(=O)NS(=O)(=O)c4ccc(N[C@H](CCN5CCOCC5)CSc5ccccc5)c(S(=O)(=O)C(F)(F)F)c4)cc3)CC2)C1` + O=C(Nc1ccccc1)c1cc([N+](=O)[O-])ccc1Cl [GW9662] (first compound 2 µM, partner dose 10 µM), the cell count in the assay with 501Mel turned out to be 66.5%; in the assay on A101D, 24.5%; in the assay on A2058, 86.1%; in the assay with A375, 57.5%.
Regarding `O=C(/C=C/c1cccnc1)NCCCCC1CCN(C(=O)c2ccccc2)CC1` + Cn1cc(/C=C2\C(=O)Nc3cccnc32)c2ccccc21 [GW441756] (first compound 0.05 µM, partner dose 2 µM), the cell count in the assay with 501Mel stood at 66%; in the assay with A101D, 93.9%; with A2058, 113%; in the assay on A375, 152%.
On to `Cc1ccc(Nc2nccc(N(C)c3ccc4c(C)n(C)nc4c3)n2)cc1S(N)(=O)=O` [Pazopanib] + O=C(Nc1ccccc1)c1cc([N+](=O)[O-])ccc1Cl [GW9662] (first compound 2 µM, partner dose 10 µM), for which the cell count with 501Mel is 56.4%; in the assay on A101D, 65.5%; in the assay with A2058, 95.4%; in the assay with A375, 107%.
For the compound `CC1(C)CCC(c2ccc(Cl)cc2)=C(CN2CCN(c3ccc(C(=O)NS(=O)(=O)c4ccc(N[C@H](CCN5CCOCC5)CSc5ccccc5)c(S(=O)(=O)C(F)(F)F)c4)cc3)CC2)C1` + N#Cc1c(O)c2c(-c3ccc(-c4ccccc4O)cc3)csc2[nH]c1=O [A769662] (first compound 2 µM, partner dose 10 µM), the cell count in the assay on 501Mel worked out at 100%; with A101D, 38.7%; in the assay on A2058 it was 108%; in the assay on A375, 66.1%.
For `CC1(C)CCC(c2ccc(Cl)cc2)=C(CN2CCN(c3ccc(C(=O)NS(=O)(=O)c4ccc(N[C@H](CCN5CCOCC5)CSc5ccccc5)c(S(=O)(=O)C(F)(F)F)c4)cc3)CC2)C1` + CCN(CC)CCCCNc1ncc2cc(-c3cc(OC)cc(OC)c3)c(NC(=O)NC(C)(C)C)nc2n1 [PD173074] (first compound 2 µM, partner dose 0.5 µM) the same measures were 69.9%, 51.9%, 83.6% and 68.5%.
As to `O=C(/C=C/c1cccnc1)NCCCCC1CCN(C(=O)c2ccccc2)CC1` + CC(C)CCN1c2nc(Nc3cc(F)c(O)c(F)c3)ncc2N(C)C(=O)C1C [BID1870] (first compound 0.05 µM, partner dose 1 µM), the cell count is 63.2% with 501Mel, 68.5% in the assay with A101D, 96.6% in the assay on A2058 and 97.8% in the assay on A375.
On to `CC1(C)CCC(c2ccc(Cl)cc2)=C(CN2CCN(c3ccc(C(=O)NS(=O)(=O)c4ccc(N[C@H](CCN5CCOCC5)CSc5ccccc5)c(S(=O)(=O)C(F)(F)F)c4)cc3)CC2)C1` + COc1cc(N2CCC(N3CCN(C)CC3)CC2)ccc1Nc1ncc(Cl)c(Nc2ccccc2S(=O)(=O)C(C)C)n1 [NVP-TAE684] (first compound 2 µM, partner dose 0.4 µM), for which the cell count worked out at 71.5% in the assay on 501Mel, 28.5% in the assay with A101D, 42.3% with A2058 and 54.5% with A375.
Turning to `O=C(/C=C/c1cccnc1)NCCCCC1CCN(C(=O)c2ccccc2)CC1` + COc1cc2ncnc(Nc3ccc(Oc4ccccc4)cc3)c2cc1OC [SrcI1] (first compound 0.05 µM, partner dose 10 µM), the cell count with 501Mel came to 62%; with A101D, 63%; in the assay with A2058, 98.3%; in the assay on A375, 149%.
As for `Cc1ccc(Nc2nccc(N(C)c3ccc4c(C)n(C)nc4c3)n2)cc1S(N)(=O)=O` [Pazopanib] + COc1ccc2c(c1)CCC1C2CCC2(C)C(NCCCCCCN3C(=O)C=CC3=O)CCC12 [U73122] (first compound 2 µM, partner dose 2 µM), the cell count in the assay with 501Mel was 105%; in the assay with A101D, 75.9%; in the assay with A2058, 91.9%; in the assay on A375 it was 87.6%.
Take `O=C(/C=C/c1cccnc1)NCCCCC1CCN(C(=O)c2ccccc2)CC1` + COc1ccc(COc2ccc(Cc3cnc(N)nc3N)cc2OC)cc1 [GW2580] (first compound 0.05 µM, partner dose 5 µM): the cell count in the assay on 501Mel came out at 73.4%; with A101D it was 88.5%; with A2058 it was 75.1%; with A375, 108%.
As to `CC1(C)CCC(c2ccc(Cl)cc2)=C(CN2CCN(c3ccc(C(=O)NS(=O)(=O)c4ccc(N[C@H](CCN5CCOCC5)CSc5ccccc5)c(S(=O)(=O)C(F)(F)F)c4)cc3)CC2)C1` + Oc1cc(-c2nc(-c3ccccc3)[nH]c2-c2ccncc2)ccc1Cl [L779450] (first compound 2 µM, partner dose 1 µM), the cell count in the assay on 501Mel is 71.3%; in the assay with A101D, 29.8%; in the assay on A2058 it was 87.7%; in the assay with A375, 63%.
With `O=C(/C=C/c1cccnc1)NCCCCC1CCN(C(=O)c2ccccc2)CC1` + COc1cc(N2CCC(N3CCN(C)CC3)CC2)ccc1Nc1ncc(Cl)c(Nc2ccccc2S(=O)(=O)C(C)C)n1 [NVP-TAE684] (first compound 0.05 µM, partner dose 0.4 µM), the cell count in the assay on 501Mel worked out at 68.3%; in the assay on A101D it was 78.1%; in the assay on A2058, 81.2%; in the assay with A375, 129%.
Consider `Cc1ccc(Nc2nccc(N(C)c3ccc4c(C)n(C)nc4c3)n2)cc1S(N)(=O)=O` [Pazopanib] + Oc1nc(-c2ccc(C(F)(F)F)cc2)nc2c1CSCC2 [XAV939] (first compound 2 µM, partner dose 10 µM), for which the cell count in the assay with 501Mel was found to be 71.6%; with A101D, 74.4%; in the assay on A2058 it was 69.9%; in the assay on A375, 83.4%.
The like results for `O=C(/C=C/c1cccnc1)NCCCCC1CCN(C(=O)c2ccccc2)CC1` + Cc1cc([N+](=O)[O-])ccc1NS(=O)(=O)c1cc(Cl)ccc1Cl [FH535] (first compound 0.05 µM, partner dose 5 µM) were, in that order, 91.8%, 68.3%, 81% and 95.2%.
As for `O=C(/C=C/c1cccnc1)NCCCCC1CCN(C(=O)c2ccccc2)CC1` + CNC(=O)c1cc(Oc2ccc(NC(=O)Nc3ccc(Cl)c(C(F)(F)F)c3)cc2)ccn1 [sorafenib] (first compound 0.05 µM, partner dose 2 µM), the cell count was determined as 102% in the assay with A101D, 118% with A2058 and 111% in the assay with A375.
